# Assay results as given in the supplement of paper PMC8728848.
# The other results are listed elsewhere or left out.
# B1: Cohesin-hDCIR (Homo sapiens) (protein)
# chain: LDDLDAVRIKVDTVNAKPGDTVRIPVRFSGIPSKGIANCDFVYSYDPNVLEIIEIEPGDIIVDPNPDKSFDTAVYPDRKIIVFLFAEDSGTGAYAITKDGVFATIVAKVKEGAPNGLSVIKFVEVGGFANNDLVEQKTQFFDGGANVGDTTEPATPTTPVTTPTTTDDLDAASQKYSQLLEKKTTKELVHTTLECVKKNMPVEETAWSCCPKNWKSFSSNCYFISTESASWQDSEKDCARMEAHLLVINTQEEQDFIFQNLQEESAYFVGLSDPEGQRHWQWVDQTPYNESSTFWHPREPSDPNERCVVLNFRKSPKRWGWNDVNCLGPQRSVCEMMKIHLHHHHHH
# Experiments:
# Assay in all cases: glycan array binding signal (z-score within array); higher = stronger binding
# Conditions in all cases: glycan notation: IUPAC condensed, linker removed
# [1] = target: Man(a1-2)Man(a1-3)[Man(a1-2)Man(a1-6)]Man(a1-6)[Man(a1-2)Man(a1-2)Man(a1-3)]Man
# Method in brief: (§1)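 Glycan array data were curated from 3228 arrays in the Consortium for Functional Glycomics database and kept only where the protein sequence was available. Glycan names were converted to IUPAC-condensed notation, and columns mapping to the same glycan were averaged. The binding signal is a within-array Z-score, averaged across arrays of the same protein sequence at different concentrations or buffers and across linkers. Negative Z-scores can be read as non-binding.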
# [2] = target: Man(a1-2)Man(a1-3)[Man(a1-2)Man(a1-6)]Man(a1-6)[Man(a1-2)Man(a1-2)Man(a1-3)]Man(b1-4)GlcNAc(b1-4)GlcNAc
# Method in brief: as §1
# [3] = target: Man(a1-2)Man(a1-3)[Man(a1-6)]Man(a1-6)[Man(a1-2)Man(a1-3)]Man(b1-4)GlcNAc(b1-4)GlcNAc
# Method in brief: as §1
# [4] = target: Man(a1-2)Man(a1-6)[Man(a1-3)]Man(a1-6)[Man(a1-2)Man(a1-2)Man(a1-3)]Man
# Method in brief: as §1
# [5] = target: Man(a1-2)Man(a1-6)[Man(a1-3)]Man(a1-6)[Man(a1-2)Man(a1-2)Man(a1-3)]Man(b1-4)GlcNAc(b1-4)GlcNAc
# Method in brief: as §1
# [6] = target: Man(a1-3)[Man(a1-6)]Man
# Method in brief: as §1
# [7] = target: Man(a1-3)[Man(a1-6)]Man(a1-6)[Man(a1-2)Man(a1-3)]Man(b1-4)GlcNAc(b1-4)GlcNAc
# Method in brief: as §1
# [8] = target: Man(a1-3)[Man(a1-6)]Man(a1-6)[Man(a1-3)]Man
# Method in brief: as §1
# [9] = target: Man(a1-3)[Man(a1-6)]Man(a1-6)[Man(a1-3)]Man(b1-4)GlcNAc(b1-4)GlcNAc
# Method in brief: as §1
# [10] = target: Man(a1-3)[Man(a1-6)]Man(b1-4)GlcNAc(b1-4)GlcNAc
# Method in brief: as §1
# [11] = target: Man(a1-3)[Man(a1-6)]Man(b1-4)GlcNAc(b1-4)[Fuc(a1-6)]GlcNAc
# Method in brief: as §1
# [12] = target: Man(a1-6)Man
# Method in brief: as §1
# [13] = target: Man(b1-4)GlcNAc
# Method in brief: as §1
# [14] = target: MurNAc(b1-4)GlcNAc
# Method in brief: as §1
# [15] = target: Neu5Ac(a2-3)Gal
# Method in brief: as §1
# [16] = target: Neu5Ac(a2-3)Gal(b1-3)GalNAc
# Method in brief: as §1
# [17] = target: Neu5Ac(a2-3)Gal(b1-3)GalNAc(b1-3)Gal(a1-4)Gal(b1-4)Glc
# Method in brief: as §1
# [18] = target: Neu5Ac(a2-3)Gal(b1-3)GalNAc(b1-4)[Neu5Ac(a2-3)]Gal(b1-4)Glc
# Method in brief: as §1
# [19] = target: Neu5Ac(a2-3)Gal(b1-3)GalNAc(b1-4)[Neu5Ac(a2-8)Neu5Ac(a2-3)]Gal(b1-4)Glc
# Method in brief: as §1
# [20] = target: Neu5Ac(a2-3)Gal(b1-3)GalNAc6S
# Method in brief: as §1
# [21] = target: Neu5Ac(a2-3)Gal(b1-3)GlcNAc
# Method in brief: as §1
# [22] = target: Neu5Ac(a2-3)Gal(b1-3)GlcNAc(b1-2)Man
# Method in brief: as §1
# [23] = target: Neu5Ac(a2-3)Gal(b1-3)GlcNAc(b1-2)Man(a1-3)[GlcNAc(b1-4)][Neu5Ac(a2-3)Gal(b1-3)GlcNAc(b1-2)Man(a1-6)]Man(b1-4)GlcNAc(b1-4)GlcNAc
# Method in brief: as §1
# [24] = target: Neu5Ac(a2-3)Gal(b1-3)GlcNAc(b1-2)Man(a1-3)[Neu5Ac(a2-3)Gal(b1-3)GlcNAc(b1-2)Man(a1-6)]Man(b1-4)GlcNAc(b1-4)GlcNAc
# Method in brief: as §1
# [25] = target: Neu5Ac(a2-3)Gal(b1-3)GlcNAc(b1-3)Gal(b1-3)GlcNAc
# Method in brief: as §1
# [26] = target: Neu5Ac(a2-3)Gal(b1-3)GlcNAc(b1-3)Gal(b1-4)GlcNAc
# Method in brief: as §1
# [27] = target: Neu5Ac(a2-3)Gal(b1-3)GlcNAc(b1-3)GalNAc
# Method in brief: as §1
# [28] = target: Neu5Ac(a2-3)Gal(b1-3)GlcNAc(b1-4)Gal(b1-4)Glc
# Method in brief: as §1
# [29] = target: Neu5Ac(a2-3)Gal(b1-3)GlcNAc(b1-6)GalNAc
# Method in brief: as §1
# [30] = target: Neu5Ac(a2-3)Gal(b1-3)GlcNAc6S
# Method in brief: as §1
# [31] = target: Neu5Ac(a2-3)Gal(b1-3)[Fuc(a1-4)]GlcNAc
# Method in brief: as §1
# [32] = target: Neu5Ac(a2-3)Gal(b1-3)[Fuc(a1-4)]GlcNAc(b1-3)Gal(b1-3)[Fuc(a1-4)]GlcNAc
# Method in brief: as §1
# [33] = target: Neu5Ac(a2-3)Gal(b1-3)[Fuc(a1-4)]GlcNAc(b1-3)Gal(b1-4)[Fuc(a1-3)]GlcNAc
# Method in brief: as §1
# [34] = target: Neu5Ac(a2-3)Gal(b1-3)[GlcNAc(b1-6)]GalNAc
# Method in brief: as §1
# [35] = target: Neu5Ac(a2-3)Gal(b1-3)[Neu5Ac(a2-6)]GalNAc
# Method in brief: as §1
# [36] = target: Neu5Ac(a2-3)Gal(b1-3)[Neu5Ac(a2-6)]GlcNAc(b1-3)[Fuc(a1-3)[Gal(b1-4)]GlcNAc(b1-6)]Gal(b1-4)Glc
# Method in brief: as §1
# [37] = target: Neu5Ac(a2-3)Gal(b1-3)]Neu5Ac(a2-3)Gal(b1-4)]GlcNAc
# Method in brief: as §1
binder,measurement,setting,value
B1,glycan array binding signal (z-score),[1],-0.684
same,glycan array binding signal (z-score),[2],-0.537
same,glycan array binding signal (z-score),[3],-0.687
same,glycan array binding signal (z-score),[4],-0.522
same,glycan array binding signal (z-score),[5],-0.537
same,glycan array binding signal (z-score),[6],-0.44
same,glycan array binding signal (z-score),[7],-0.324
same,glycan array binding signal (z-score),[8],-0.053
same,glycan array binding signal (z-score),[9],-0.56
same,glycan array binding signal (z-score),[10],-0.53
same,glycan array binding signal (z-score),[11],-0.665
same,glycan array binding signal (z-score),[12],3.2
same,glycan array binding signal (z-score),[13],-0.365
same,glycan array binding signal (z-score),[14],-0.365
same,glycan array binding signal (z-score),[15],-0.332
same,glycan array binding signal (z-score),[16],-0.622
same,glycan array binding signal (z-score),[17],-0.587
same,glycan array binding signal (z-score),[18],-0.499
same,glycan array binding signal (z-score),[19],-0.554
same,glycan array binding signal (z-score),[20],1.41
same,glycan array binding signal (z-score),[21],-0.39
same,glycan array binding signal (z-score),[22],-0.373
same,glycan array binding signal (z-score),[23],-0.577
same,glycan array binding signal (z-score),[24],-0.312
same,glycan array binding signal (z-score),[25],-0.628
same,glycan array binding signal (z-score),[26],-0.583
same,glycan array binding signal (z-score),[27],0.074
same,glycan array binding signal (z-score),[28],-0.635
same,glycan array binding signal (z-score),[29],1.94
same,glycan array binding signal (z-score),[30],-0.267
same,glycan array binding signal (z-score),[31],0.198
same,glycan array binding signal (z-score),[32],-0.526
same,glycan array binding signal (z-score),[33],-0.254
same,glycan array binding signal (z-score),[34],0.092
same,glycan array binding signal (z-score),[35],-0.352
same,glycan array binding signal (z-score),[36],-0.629
same,glycan array binding signal (z-score),[37],0.083
